Source: the RNAGym collection of RNA variant scans (doi:10.1101/gad.245936.114)
This sample is rich in variants without activity.

B1: tRNA (parent)
chain: CUCUCGGUAGCCAAGUUGGUUUAAGGCGCAAGACUUUAAUUUAUCACUACGAAAUCUUGAGAUCGGGCGUUCGACUCGCCCCCGGGAGAUUUUUUCCUCGAGCAA

Variants of: B1
Assay: nonsense suppression (GFP-seq) (ratio to wild type); higher = more function; SUP4oc tRNA, yeast GFP reporter sort-seq
Procedure, shortened: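 Nonsense suppression (GFPSEQ) is the median GFP/RFP ratio of each sorting bin, weighted by the variant's estimated share of cells in that bin and expressed relative to the unmutated parent tRNA. Yeast strains carried genome-integrated variants of an ochre-suppressor tRNA from a library with ~3% random mutations, plus a galactose-driven GFP ochre reporter and RFP, and were grown in raffinose/galactose medium containing 80 mg/L adenine. Cells were sorted into GFP/RFP bins, each bin was Illumina-sequenced (phred ≥30), and variants were kept only with ≥100 reads and ≥30 cells.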

Nonsense suppression, 0.0508:
CACUCGGUAGCCAAGUUGGUUUAAGGCGCAAGACUUUAAUUUAUCACUACGAAAUCUUGAGAUCGGGCGUUCAACUCGCCCCCGGGAGAUUUUUUCCUCGAGCAA

Nonsense suppression, ≤ 0.026:
CACUCGGUAGCCAAGUUGGUUUAAGGCGCAAGACUUUAAUUUAUCACUACGAAAUCUUGAGAUCGGGCGUUCGAAUCGCCCCCGGGAGAUUUUUUCCUCGAGCAA
CACUCGGUAGCCAAGUUGGUUUAAGGCGCAAGACUUUAAUUUAUCACUACGAAAUCUUGAGAUCGGGCGUUCGACUCGCCCCCGCGAGAUUUUUUCCUCGAGCAA
CACUCGGUAGCCAAGAUGGUUUAGGGCGCAAGACUUUAAUUUAUCACUACGAAAUAUUGAAAUCGCGCGUUCGACUCGCCCCCGGGGGAUUUUUUCCUCGAGCAA
CACUCGGUAGCCAAGUUGGUUUAAGGCGCAAGACUUUAAUUUAUCACUACGAAAUCUUAAGAUCGGGCGUUCGACUCGCUCCCGGGAGAUUUUUUCCUCGAGCAA
CACUCGGUAGCCAAUUUCGUUUAAGGCGCAAGACGUUAAUUUAUCACUACGAAAUCUUGAGAUCCGGCGUUCGACUUGCCCCCGGGAGAUUUUUUCCUCGAGCAA
CACUCGGUAGCCAAGUUGUUUGAAGGCGCAAGACAUUAAUUUAUCACUACGAAAUCUUGAGAUCGGGCGUUCGACUCGCCCCCGGGUGAUUUUUUCCUCGAGCAA
CACUCGGUAGCCAAGUUGGUUUAAGACGCAAGACUUUAAUUUAUCACUACGAAAUCUUGAGAUCGGUCGUUCGACUCGCCCCCGGGAGAUUUUUUCCUCGAGCAA
CACUCGGUAGCCAAGUUGGUUUAAGGCGCAAGACUUUAAUUUAUCACUACGAAAUCUUGAGAUCGGGCGUUCGACUAGCCCCCGGGAGAUUUUUUCCUCGAGCAA
CACUCGGUAGCCAAGUUGGUUUAAGGCGCAAGACUUUAAUUUAUCACUACGAAAUCUUGAGAUCGGGCGUUCGACUCGCCCCCAGGAGCUUUUUUCCUCGAGCAA
CACUCGGGAGCCAAGGUGGUUUAAGGCGCAAGACUUUAAUUUAUCACUACGAAAUCUUGCGAUCGGGCGUUCGACUCGCCCCCGGGAGAUUUUUUCCUCGAGCAA
CACUCGGUAGCCAAGUUGGUUUAAGGCGUAAGACUUUAAUUUAUCACUACGAAACCUUGCGGUCGGGCGUUCGACUCGCCCCCGGGAGAUUUUUUCCUCGAGCAA
CACUCGGUAGCCAAGUUGGUUUAAGGCGCAAAACUUUAAUUUAUCACUACGAAAUGUUGAGAUCGGGCGUUCGACUCGCCCCCGGGAGAUUUUUUCCUCGAGCAA
CACUCCGUAGCCAAGUUGGUUUAAGGCGCUAGACUUUAAUUUAUCACUACGAAAUCUUGAGAUCGGGCGUUCGACUCGCCCCCGGGAGAUUUUUUCCUCGAGCAA
CACUCGGUAGCCAAGUUGGUUUAAGGCGCAAUAUUUUAAUUUAUCACUACGAAAUCUUGAGAUCGGGCGUUCGACUCGCCCCCGGGAGAUUUUUUCCUCGAGCAA
CACUCGGGAGCCAAGUUGGUUUAAGGCGAAAGACUUUAAUUUAUCACUACGAAAUCUUGAGAUCGGGCGUUCGACUCGCCCCCGGGAGAUUUUUUCCUCGAGCAA
CACUCGGGAGCCAAGUUGGUUUAAGACGCAAGACUUUAAUUUAUCACUACGAAAUCUUGAGAUCGGGCGUUCGACUCGCCCCCGGGAGAUUUUUUCCUCGAGCAA
CACACGGUAGACAAGUUGGUUUAAGGCGCAAGACUUUAAUUUAUCACUACGAAAUCUUGAGACCGGGCGUGCGACUCGCCCCCGGGAGAUUUUUUCCUCGAGCAA
CACUCGGUAGCCAACUGGGUUUAAGGCGCAAGACUUUAAUUUAUCACUACGAAAUCUUGAGAUCGGGCGUUCGACUCGCCCCCGGGAGAUUUUUUCCUCGAGCAA
CACUCGCUAGCCAAGGUGGUUUAAGGCGCAAGACUUUAAUUUAUCACUACGAAAUCUUGUGAUGGGGCGUUCGCCUCGCCCCCGGGAGAUUUUUUCCUCGAGCAA
CACUCGGUAGCCAAGUUGGUUUAAGGCGCAAGACUUUAAUUUAUCACUACGAAAUCUUGAGAUCGGGCGUUCGACUCGCCCCCGGUAGAUUUUUUCCUCGAGCAA
CACGCGGUAGCCAAGUUGGUUUAAGGCGCAAGACUUUAAUUUAUCACUACGAAAUCUUGAGAUCGGGCGUUAGACUCGCCCCCGGGAGAUUUUUUCCUCGAGCAA
CACUCUGUAGCCAAGUUGGUUUAAGGCGCAAGACUUUAAUUUAUCACUACGAAAUCUUGAGAUCGGGCGUUCGACUCGCUCCCGGGAGAUUUUUUCCUCGAGCAA
CACUCGGUAGCCAAGUUGGUUUAAGGCGCAAGACUUUAAUUUAUCACUACGAAAUCUUGAGAUCGGGCUUGCGACUCGCCCCCGGGAGAUUUUUUCCUCGAGCAA
CACUCGGUAGCCAAUUUGGUUUAAGGCGCAAGACUUUAAUUUAUCACUACGAAAUCUUGAGAUCGGGCGUUCGACUCGCCCCCGGGAGAUUUUUUCCUCGAGCAA
CACUCGGUAGCCAAGAUGGUUUAUGGCGCCAGACUUUAAUUUAUCACUACGAAAUCUUGAGAUCGGGCGUUCGACUCGCCCCCGGGAGAUUUUUUCCUCGAGCAA

Nonsense suppression, 0.0323:
CACACGGUAGCCAAGUUGGUUUAAGGCGCAAGACUUUAAUUUAUCACUACGAAAUCUUGAGAUCGGGCGUUCGACUCGCCCCCGGGAGAUUUUUUCCUCGAGCAA
